Experimental data reported in PubChem BioAssay AID493035 (The Scripps Research Institute Molecular Screening Center, 2011).
Where “and” joins values, the source holds several entries; their conditions need not be identical. Equal values may be shown once. Hit rate of the full screen: of about 2,000 compounds, about 45 (2%) were called active.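 The calls were made as follows: active = inhibition above the mean of all tested compounds plus 3 SD (cut at about 49% in these data); inactive = the rest.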 The list shows a part of the results. Where a SMILES comes first, the peptide text is derived from it.

Molecular target: Perilipin-5 (Homo sapiens) + 1-acylglycerol-3-phosphate O-acyltransferase ABHD5 (Homo sapiens) (UniProt Q00G26+Q8WTS1)
Chain of UniProt Q00G26 (Q00G26 whole entry, looked up): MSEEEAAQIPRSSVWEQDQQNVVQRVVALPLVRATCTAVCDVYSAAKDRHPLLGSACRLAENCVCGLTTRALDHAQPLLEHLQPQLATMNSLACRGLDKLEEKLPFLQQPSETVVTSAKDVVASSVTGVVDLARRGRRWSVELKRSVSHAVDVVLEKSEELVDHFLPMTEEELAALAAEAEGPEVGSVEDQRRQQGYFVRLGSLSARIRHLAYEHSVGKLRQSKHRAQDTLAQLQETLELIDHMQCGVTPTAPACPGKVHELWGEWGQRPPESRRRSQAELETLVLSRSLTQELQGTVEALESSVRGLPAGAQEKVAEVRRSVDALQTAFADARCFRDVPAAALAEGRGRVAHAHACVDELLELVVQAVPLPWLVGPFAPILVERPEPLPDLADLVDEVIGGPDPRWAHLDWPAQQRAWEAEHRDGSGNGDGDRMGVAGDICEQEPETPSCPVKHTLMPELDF
Chain of UniProt Q00G26 (Q8WTS1 whole entry, looked up): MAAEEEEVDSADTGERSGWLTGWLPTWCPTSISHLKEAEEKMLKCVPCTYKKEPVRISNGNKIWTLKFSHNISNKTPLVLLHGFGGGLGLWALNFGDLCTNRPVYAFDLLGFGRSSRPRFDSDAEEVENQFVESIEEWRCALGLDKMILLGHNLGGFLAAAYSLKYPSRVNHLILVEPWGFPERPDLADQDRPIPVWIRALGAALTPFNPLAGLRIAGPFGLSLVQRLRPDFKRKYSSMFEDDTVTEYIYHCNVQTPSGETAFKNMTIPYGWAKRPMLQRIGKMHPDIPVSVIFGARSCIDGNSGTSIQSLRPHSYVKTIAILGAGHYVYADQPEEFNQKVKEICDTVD
Assay: blockers of ABHD5 binding to perilipin-5 – cell lysate, split luciferase complementation, luminescence, NIH validation set, pilot screen (AID 493035);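 also: 0% = DMSO only wells while the 100% control is not stated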
Conditions: split G. princeps luciferase complementation, lysates, 4 h, at 7.9 µM, hits give high values

Structure (SMILES)	inhibition
Nc1ccncc1	inactive: -4.92%
C[N+]1(C)CCOC(O)(c2ccc(-c3ccc(C4(O)C[N+](C)(C)CCO4)cc3)cc2)C1 (configuration not stated)	inactive: -6.43%
C[C@]12CCC(=O)C=C1CC[C@@H]1[C@@H]2C(=O)C[C@]2(C)C(=O)CC[C@@H]12	inactive: -5.52%
COc1ccc(C(=O)N2CCCC2=O)cc1	inactive: 5.49%
O=C(O)CCCc1ccc(N(CCCl)CCCl)cc1	inactive: 2.98%
CC(C)[C@@]1(NC(=O)[C@@H]2C[C@@H]3c4cccc5[nH]cc(c45)C[C@H]3N(C)C2)O[C@@]2(O)[C@@H]3CCCN3C(=O)[C@H](Cc3ccccc3)N2C1=O	inactive: -8.89%
CCOc1ccc(C2C(C#N)=C(N)Oc3c2c(=O)oc2ccccc32)cc1 (configuration not stated)	inactive: 16%
CC12CCC3C(CC=C4CC5(CCC43C)OCCO5)C1CCC2=O (configuration not stated)	inactive: 1.45%
CC(C)CC12CN3CCN(CC(C3)C1O)C2 (configuration not stated)	inactive: 0.3%
Clc1ccc(CSC(Cn2ccnc2)c2ccc(Cl)cc2Cl)cc1 (configuration not stated)	inactive: 0.39%
CCCC[N+]1(C)[C@@H]2CC(OC(=O)[C@H](CO)c3ccccc3)C[C@H]1[C@@H]1O[C@@H]12 (some centres not stated)	inactive: 2.01%
CC(CCc1ccccc1)NC(C)C(O)c1ccc(O)cc1 (configuration not stated)	inactive: -7.85%
O=C1CN=C(c2ccccc2F)c2cc(Cl)ccc2N1	inactive: -9.8%
CC(C)C[C@H](NC(=O)[C@@H]1CCCN1C(=O)[C@@H](N)Cc1ccc(O)cc1)C(=O)NCC(N)=O (H-YPLG-NH2)	inactive: -12.9%
C[C@H](O)[C@H]1CC[C@H]2[C@@H]3CCC4=CC(=O)CC[C@]4(C)[C@H]3CC[C@]12C	inactive: -1.19%
CN1C(=O)N(C)C(=O)C2(Cc3ccccc3N3CCOCC32)C1=O (configuration not stated)	inactive: 3.51%
Cc1cc(Cl)ccc1OCC(=O)O	inactive: 5.14%
CCNC(=S)N(C)CCc1cc2c(c(OC)c1C=C1C(=O)N(C)C(=O)N(C)C1=O)OCO2	inactive: 9.42%
NNC(=O)c1ccc(Cl)cc1	inactive: 2.19%
COc1cc2c3cc1Oc1cc(ccc1O)C[C@@H]1c4c(cc(OC)c(O)c4Oc4ccc(cc4)C[C@H]3N(C)CC2)CCN1C	inactive: -1.89%
CC(Cc1ccccc1)NCC(=O)Nc1cc(N(C)C)nc2ccccc12 (configuration not stated)	inactive: 2.7%
C[C@H]1CCCC(=O)CCC/C=C/c2cc(O)cc(O)c2C(=O)O1	inactive: -1.44%
Cc1ccc(-n2c(C)cc(/C=C3/C(=O)NC(=O)N(C)C3=O)c2C)cc1	inactive: 33.2%
Cc1ccsc1C(=O)C1CCCN(Cc2cc3ccccc3o2)C1 (configuration not stated)	inactive: -2.51%
OC1CCCCC1N1CCC(c2ccccc2)CC1 (configuration not stated)	inactive: 1.24%
C[C@]12CC[C@@H](O)C[C@@H]1CC[C@@H]1[C@@H]2CC[C@]2(C)[C@@H](O)CC[C@@H]12	inactive: -3.26%

Structure (SMILES)	inhibition
COc1ccc2c(c1)CC1(CN2C)C(=O)NC(=O)N(CCc2ccccc2)C1=O (configuration not stated)	inactive: 3.64%
C[C@H]1CCC/C=C/C2C[C@H](O)CC2[C@H](O)/C=C/C(=O)O1 (some centres not stated)	inactive: -14.2%
CC(=O)OC1C2CCC1C(N1CCCC1)CC2 (configuration not stated)	inactive: 1.91%
CC12CCC3C(CC=C4CC(O)CCC43C)C1C/C(=C\c1cccc(F)c1)C2=O (configuration not stated)	inactive: -0.83%
CC12CC[C@H]3[C@@H](CCC4(O)C[C@H](O)CCC34/C=N/NC(=O)Cc3ccccc3)C1(O)CCC2C1=CC(=O)OC1 (some centres not stated)	inactive: -6.3%
CC12CN3CC(C)(CN(C1)C31CCOCC1)C2=O	inactive: -15.3%
C[C@]12CC[C@@H](O)C[C@@H]1CC[C@@H]1[C@@H]2CC[C@]2(C)C(=O)CC[C@@H]12	inactive: -8.46%
CC[C@]12C=CCN3CCC4(c5cc(Br)c(OC)cc5N(C)C4[C@@](O)(C(=O)OC)[C@@H]1OC(C)=O)C32 (some centres not stated)	inactive: -5.38%
C[C@@H]1O[C@@H](O[C@H]2C[C@@H](O)[C@]3(CO)[C@H]4[C@H](O)C[C@]5(C)[C@@H](C6COC(=O)C6)CC[C@]5(O)[C@@H]4CC[C@]3(O)C2)[C@H](O)[C@H](O)[C@H]1O (some centres not stated)	inactive: -8.05%
O=c1[nH]c2ccccc2n1CCCN1CCC(n2c(=O)[nH]c3cc(Cl)ccc32)CC1	inactive: -4.38%
C#C[C@]1(O)CC[C@H]2[C@@H]3CCC4=CC(=O)CC[C@]4(C)[C@H]3CC[C@@]21C	inactive: -0.76%
CC(C)[N+](C)(CCC(C(N)=O)(c1ccccc1)c1ccccc1)C(C)C	inactive: -7.44%
O=C1CCCC2=C1C(c1cccnc1)Nc1ccccc1N2 (configuration not stated)	inactive: 2.51%
CC[C@@H]1C(=O)OC[C@@H]1Cc1cncn1C	inactive: -5.38% and inactive: -3.68%
C#CCN(C)C(C)Cc1ccccc1 (configuration not stated)	inactive: -8.51%
Cc1cc(OCc2cc(C(=O)O)oc2C)c2c3c(c(=O)oc2c1)CCCC3	inactive: 2.93%
NC(=O)CN1CCCC1=O	inactive: -4.54%
O=C1NC(=O)C2(Cc3ccccc3N3CCCC32)C(=O)N1c1ccc(Cl)cc1 (configuration not stated)	inactive: 20.7%
Cc1c2ccncc2c(C)c2c1[nH]c1ccccc12	inactive: -3.24%
Cc1nc2ccccc2c(=O)n1-c1ccc(C(=O)O)cc1	inactive: 7.89%
COc1cc(/C=C2\C(=O)NC(=O)N(c3ccccc3)C2=O)c([N+](=O)[O-])cc1OC	active: 63.5%
C=C1[C@@H](C)[C@H]2[C@H](Cc3ccccc3)NC(=O)[C@]23OC(=O)/C=C/[C@H](O)CCC[C@@H](C)C/C=C/[C@H]3[C@@H]1O	inactive: -1.05%
C[N+]1(C)[C@@H]2CC[C@H]1CC(OC(=O)C(CO)c1ccccc1)C2 (some centres not stated)	inactive: 3.11%
CCOC(=O)C1=C(C)OC(N)=C(C(=O)OCC)[C@@]12C(=O)N(CC(N)=O)c1ccccc12	inactive: -9.23%
CC/C(=C\C=C\[C@@H]1C=C[C@@H]2CCC[C@H]2[C@@H]1C(=O)c1ccc[nH]1)[C@@H]1O[C@@H]([C@@H](C)C(=O)O)CC[C@@H]1C	inactive: 0.4%
Cc1cccc(C)c1NC1=NCCCS1	inactive: -1.36%
